According to the supplement of paper PMC9174493:
Some of the results follow. Single values of this set are uncertain. Values with irradiation are relative to irradiated vehicle.
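Also: viability correction based on the alamar blue assay, with concentrations leaving 10% survival or less dropped.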

These compounds were tested on A549-Dual (assay: NF-kB reporter (SEAP) activity, viability-corrected, relative to vehicle (fold change vs vehicle); higher = more activation of STING-IRF / NF-kB immune response reporter). Conditions: 10 µM; irradiation: 8 Gy/4 fr.
In the case of `O=C1OC2(c3ccc(O)cc3Oc3cc(O)ccc32)c2ccccc21` [Fluorescein], the NF-kB reporter is reported as 1.42. Compound `COc1cc(/C=C/C(=O)OC2CCC34CC35CCC3(C)C(C(C)CCC=C(C)C)CCC3(C)C5CCC4C2(C)C)ccc1O` (configuration not stated) [Gamma-Oryzanol] has an NF-kB reporter of 0.549. `NC1CONC1=O` [L-Cycloserine] was tested, and the NF-kB reporter was 0.927. Work on `CCN1CCN(c2cc3c(cc2F)c(=O)c(C(=O)O)cn3C2CC2)CC1` [Enrofloxacin] yielded an NF-kB reporter of 0.854. Compound `OCC1OC(Oc2ccc(O)cc2)C(O)C(O)C1O` (stereo not drawn) [alpha-Arbutin] has an NF-kB reporter of 0.769. In the case of `CS(=O)(=O)n1cc2c(n1)CN(C1COC(c3cc(F)ccc3F)C(N)C1)C2` (configuration not stated) [Omarigliptin (MK-3102)], the NF-kB reporter is reported as 1.04. `COC1CC(OC2C(C)OC(OC3/C(C)=C/CC4CC(CC5(C=CC(C)C(C6CCCCC6)O5)O4)OC(=O)C4C=C(C)C(O)C5OC/C(=C\C=C\C3C)C45O)CC2OC)OC(C)C1O` (configuration not stated) [Doramectin] was tested, and the NF-kB reporter was 1.39. Compound `CN(Cc1ccc(C(C)(C)C)cc1)Cc1cccc2ccccc12.Cl` [Butenafine HCl] has an NF-kB reporter of 0.423. Work on `COC(=O)NC(C(=O)N1CCCC1c1ncc(-c2ccc3c(c2)OC(c2ccccc2)n2c-3cc3cc(-c4cnc(C5CCCN5C(=O)C(NC(=O)OC)C(C)C)[nH]4)ccc32)[nH]1)C(C)C` (configuration not stated) [Elbasvir] yielded an NF-kB reporter of 0.94. In the case of `CC1Cc2ccccc2N1NC(=O)c1ccc(Cl)c(S(N)(=O)=O)c1` (configuration not stated) [Indapamide], the NF-kB reporter is reported as 0.988. `CCC1OC(=O)CC(O)C(C)C(OC2OC(C)C(OC3CC(C)(O)C(O)C(C)O3)C(N(C)C)C2O)C(CC=O)CC(C)C(=O)/C=C/C(C)=C/C1COC1OC(C)C(O)C(OC)C1OC` (configuration not stated) [Tylosin] gave an NF-kB reporter of 0.8. Compound `N[C@H](CO)C(=O)O` [(R)-Serine] has an NF-kB reporter of 1.28. `O=C(CS(=O)Cc1ccco1)NC/C=C\COc1cc(CN2CCCCC2)ccn1` (configuration not stated) [Lafutidine] gave an NF-kB reporter of 0.893. For `O=C[C@H](O)[C@H](O)[C@H](O)CO` [D-Ribose], the NF-kB reporter was 0.594. `NC(=O)c1cccnc1` [Nicotinamide (Vitamin B3)] showed an NF-kB reporter of 0.882. Work on `CC1(C(=O)O)CCC2(C)CCC3(C)C(=CC(=O)C4C5(C)CCC(OC6OC(C(=O)[O-])C(O)C(O)C6OC6OC(C(=O)[O-])C(O)C(O)C6O)C(C)(C)C5CCC43C)C2C1.[K+].[K+]` (configuration not stated) [Dipotassium glycyrrhizinate] yielded an NF-kB reporter of 1.03. Compound `CCc1c(Cl)c(O)c(Cl)c(O)c1C(=O)OC1C(C)OC(OC/C2=C\C=C\CC(O)/C(C)=C\C(CC)C(OC3OC(C)(C)C(OC(=O)C(C)C)C(O)C3O)/C(C)=C/C(C)=C/CC(C(C)O)OC2=O)C(OC)C1O` (stereo in doubt) [Fidaxomicin] has an NF-kB reporter of 1.57. Work on `Cl.OC(CNCC(O)C1CCc2cc(F)ccc2O1)C1CCc2cc(F)ccc2O1` (configuration not stated) [Nebivolol HCl] yielded an NF-kB reporter of 0.457. `O=C(Nc1ccccc1)c1ccccc1O` [Salicylanilide] showed an NF-kB reporter of 0.791. `COCCCOc1cc(CC(CC(N)C(O)CC(C(=O)NCC(C)(C)C(N)=O)C(C)C)C(C)C)ccc1OC` (configuration not stated) [Aliskiren] was tested, and the NF-kB reporter was 0.614. Work on `CSc1ccc2c(c1)N(CCC1CCCCN1C)c1ccccc1S2.Cl` (configuration not stated) [Thioridazine hydrochloride] yielded an NF-kB reporter of 1.44. `CC(OCC1(c2ccccc2)CCC2(CCC(=O)N2)CN1)c1cc(C(F)(F)F)cc(C(F)(F)F)c1` (configuration not stated) [Rolapitant] showed an NF-kB reporter of 0.566. `Cc1ccc(S(=O)(=O)[N]([Na])Cl)cc1` [Chloramine-T] showed an NF-kB reporter of 0.675. With `CCN(CC)CCOC(=O)c1ccc(N)cc1` [Procaine] the NF-kB reporter was 0.723. In the case of `CCCCOc1ccc(OCCCN2CCOCC2)cc1.Cl` [Pramoxine HCl], the NF-kB reporter is reported as 1.09. `Cc1ccsc1/C=C/C1=NCCCN1C.O=C(O)C(O)C(O)C(=O)O` [Morantel tartrate] gave an NF-kB reporter of 0.708. With `CC(N)C12CC3CC(CC(C3)C1)C2.Cl` (configuration not stated) [Rimantadine Hydrochloride] the NF-kB reporter was 0.792. `O=CC(O)C(O)C(O)CO` (configuration not stated) [Xylose] was tested, and the NF-kB reporter was 0.791.

Same assay, conditions: 10 µM; irradiation: none
`O=C1OC(C(O)CO)C(O)C1O.[NaH]` (configuration not stated) [Sodium ascorbate] gave an NF-kB reporter of 1.04. `CCN1CCN(C(=O)NC(C(=O)NC2C(=O)N3C2SC(C)(C)C3C(=O)[O-])c2ccccc2)C(=O)C1=O.[Na+]` (configuration not stated) [Piperacillin Sodium] showed an NF-kB reporter of 1.39. With `O=c1cc(-c2ccc(O)c(O)c2)oc2cc(O)cc(O)c12` [Luteolin] the NF-kB reporter was 0.722. `CCC(=O)OC1C(OC2C(C)C(OC3CC(C)(OC)C(O)C(C)O3)C(C)C(=O)OC(CC)C(C)(O)C(O)C(C)C(=O)C(C)CC2(C)O)OC(C)CC1N(C)C.CCCCCCCCCCCCOS(=O)(=O)O` (configuration not stated) [Erythromycin estolate] was tested, and the NF-kB reporter was 0.728. `CN1CCN2c3ccccc3Cc3ccccc3C2C1.Cl` (configuration not stated) [Mianserin HCl] was tested, and the NF-kB reporter was 0.833. Compound `CCN(CC)CCNC(=O)c1cc(Cl)c(N)cc1OC.Cl` [Metoclopramide HCl] has an NF-kB reporter of 1.1. `Cl.N=C(N)NC(=N)NCCc1ccccc1` [Phenformin HCl] showed an NF-kB reporter of 0.663. Work on `C=C1CCC(O)C/C1=C/C=C1\CCCC2(C)C1CCC2C(C)/C=C/C(C)C(C)C` (configuration not stated) [Vitamin D2] yielded an NF-kB reporter of 0.994. `CCN(CC)CCOc1ccc(/C(=C(\Cl)c2ccccc2)c2ccccc2)cc1.O=C(O)CC(O)(CC(=O)O)C(=O)O` [Clomifene citrate] was tested, and the NF-kB reporter was 1.07. `C#CC1(O)CCC2C3CCc4cc(OC5CCCC5)ccc4C3CCC21C` (configuration not stated) [Quinestrol] showed an NF-kB reporter of 1.06. `NCCC(O)C(=O)NC1CC(N)C(OC2OC(CN)C(O)C(O)C2O)C(O)C1OC1OC(CO)C(O)C(N)C1O.O` (configuration not stated) [Amikacin hydrate] showed an NF-kB reporter of 0.842. Compound `O=C1OC2(c3ccc(O)cc3Oc3cc(O)ccc32)c2ccccc21` [Fluorescein] has an NF-kB reporter of 0.817. Work on `COc1cc(/C=C/C(=O)OC2CCC34CC35CCC3(C)C(C(C)CCC=C(C)C)CCC3(C)C5CCC4C2(C)C)ccc1O` (configuration not stated) [Gamma-Oryzanol] yielded an NF-kB reporter of 0.741. `NC1CONC1=O` [L-Cycloserine] showed an NF-kB reporter of 0.958. In the case of `CCN1CCN(c2cc3c(cc2F)c(=O)c(C(=O)O)cn3C2CC2)CC1` [Enrofloxacin], the NF-kB reporter is reported as 1.16. For `OCC1OC(Oc2ccc(O)cc2)C(O)C(O)C1O` (stereo not drawn) [alpha-Arbutin], the NF-kB reporter was 0.769. `CS(=O)(=O)n1cc2c(n1)CN(C1COC(c3cc(F)ccc3F)C(N)C1)C2` (configuration not stated) [Omarigliptin (MK-3102)] gave an NF-kB reporter of 0.914. `COC1CC(OC2C(C)OC(OC3/C(C)=C/CC4CC(CC5(C=CC(C)C(C6CCCCC6)O5)O4)OC(=O)C4C=C(C)C(O)C5OC/C(=C\C=C\C3C)C45O)CC2OC)OC(C)C1O` (configuration not stated) [Doramectin] showed an NF-kB reporter of 2.53. `CN(Cc1ccc(C(C)(C)C)cc1)Cc1cccc2ccccc12.Cl` [Butenafine HCl] showed an NF-kB reporter of 0.739. Compound `COC(=O)NC(C(=O)N1CCCC1c1ncc(-c2ccc3c(c2)OC(c2ccccc2)n2c-3cc3cc(-c4cnc(C5CCCN5C(=O)C(NC(=O)OC)C(C)C)[nH]4)ccc32)[nH]1)C(C)C` (configuration not stated) [Elbasvir] has an NF-kB reporter of 0.995. For `CC1Cc2ccccc2N1NC(=O)c1ccc(Cl)c(S(N)(=O)=O)c1` (configuration not stated) [Indapamide], the NF-kB reporter was 0.884. With `CCC1OC(=O)CC(O)C(C)C(OC2OC(C)C(OC3CC(C)(O)C(O)C(C)O3)C(N(C)C)C2O)C(CC=O)CC(C)C(=O)/C=C/C(C)=C/C1COC1OC(C)C(O)C(OC)C1OC` (configuration not stated) [Tylosin] the NF-kB reporter was 0.814. With `N[C@H](CO)C(=O)O` [(R)-Serine] the NF-kB reporter was 1.04. With `O=C(CS(=O)Cc1ccco1)NC/C=C\COc1cc(CN2CCCCC2)ccn1` (configuration not stated) [Lafutidine] the NF-kB reporter was 1.01. `O=C[C@H](O)[C@H](O)[C@H](O)CO` [D-Ribose] showed an NF-kB reporter of 0.572. `NC(=O)c1cccnc1` [Nicotinamide (Vitamin B3)] showed an NF-kB reporter of 0.739. `CC1(C(=O)O)CCC2(C)CCC3(C)C(=CC(=O)C4C5(C)CCC(OC6OC(C(=O)[O-])C(O)C(O)C6OC6OC(C(=O)[O-])C(O)C(O)C6O)C(C)(C)C5CCC43C)C2C1.[K+].[K+]` (configuration not stated) [Dipotassium glycyrrhizinate] showed an NF-kB reporter of 0.654. With `CCc1c(Cl)c(O)c(Cl)c(O)c1C(=O)OC1C(C)OC(OC/C2=C\C=C\CC(O)/C(C)=C\C(CC)C(OC3OC(C)(C)C(OC(=O)C(C)C)C(O)C3O)/C(C)=C/C(C)=C/CC(C(C)O)OC2=O)C(OC)C1O` (stereo in doubt) [Fidaxomicin] the NF-kB reporter was 2.54. `Cl.OC(CNCC(O)C1CCc2cc(F)ccc2O1)C1CCc2cc(F)ccc2O1` (configuration not stated) [Nebivolol HCl] gave an NF-kB reporter of 0.749. In the case of `O=C(Nc1ccccc1)c1ccccc1O` [Salicylanilide], the NF-kB reporter is reported as 1.43. `COCCCOc1cc(CC(CC(N)C(O)CC(C(=O)NCC(C)(C)C(N)=O)C(C)C)C(C)C)ccc1OC` (configuration not stated) [Aliskiren] showed an NF-kB reporter of 0.782. `CSc1ccc2c(c1)N(CCC1CCCCN1C)c1ccccc1S2.Cl` (configuration not stated) [Thioridazine hydrochloride] gave an NF-kB reporter of 1.38. With `CC(OCC1(c2ccccc2)CCC2(CCC(=O)N2)CN1)c1cc(C(F)(F)F)cc(C(F)(F)F)c1` (configuration not stated) [Rolapitant] the NF-kB reporter was 0.585. `Cc1ccc(S(=O)(=O)[N]([Na])Cl)cc1` [Chloramine-T] gave an NF-kB reporter of 0.778. `CCN(CC)CCOC(=O)c1ccc(N)cc1` [Procaine] was tested, and the NF-kB reporter was 1.01. In the case of `CCCCOc1ccc(OCCCN2CCOCC2)cc1.Cl` [Pramoxine HCl], the NF-kB reporter is reported as 0.98. Compound `Cc1ccsc1/C=C/C1=NCCCN1C.O=C(O)C(O)C(O)C(=O)O` [Morantel tartrate] has an NF-kB reporter of 0.782. `CC(N)C12CC3CC(CC(C3)C1)C2.Cl` (configuration not stated) [Rimantadine Hydrochloride] gave an NF-kB reporter of 0.978. For `O=CC(O)C(O)C(O)CO` (configuration not stated) [Xylose], the NF-kB reporter was 0.837.
